Measurements as given in PubChem BioAssay AID493208 (National Center for Advancing Translational Sciences (NCATS), 2011).
About 340 (0.77%) of roughly 44,000 compounds were called active. Inconclusive results (about 5%) are left out. Calls come from the whole dose curve; as a rule, active = well fitted inhibition curve with a large enough effect; inconclusive = small, poorly fitted or top-dose-only effect; inactive = flat fitted curve, though single readings scatter. Some of the results follow.

Test: Acumen qHTS Assay for Inhibitors of the mTORC1 Signaling Pathway in MEF (Tsc2-/-, p53-/-) Cells: Sytravon;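 note: plate controls were DMSO for no effect and rapamycin for full effect; nearly all actives have a fitted effect of over 50% in size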
Conditions: phospho-rpS6 immunofluorescence/PI, 24 h; series mostly up to 38.3 µM; activity change, negative = inhibition: at the top concentration
Procedure, shortened: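 Plate MEFs (Tsc2-/-, p53-/-, empty vector) in DMEM/10% FBS; after 24 h add compound, incubate 24 h at 37 degree Celsius; fix in PFA/TX-100, block, stain phospho-rpS6 and 10 uM PI; scan at 488 nm; report % positive cells.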

Activity change, negative = inhibition, inactive:
Cc1ccc(CN2C(=O)N(c3ccc(C)c(Cl)c3)S(=O)(=O)c3ccccc32)cc1 -0.654%
N#Cc1ccc(NC(=O)COCc2cc(-c3ccc(F)cc3)on2)cc1 1.05%
COC(=O)c1cc2oc(C)cc2n1Cc1ccc(Cl)cc1 8.25%
CCOc1ccc(CNC(=O)c2cnc(SC)nc2C)cc1 -14.1%
CCOC(=O)C1CCN(C(=O)c2nn(-c3ccc(C)cc3)c(=O)n(C)c2=O)CC1 -0.616%
COC(=O)c1c(-c2cccs2)csc1NC(=O)COc1ccc(C(C)C)cc1 -1.45%
CCc1ccc(CNC(=O)c2ccc(CS(=O)(=O)Cc3ccccc3C)o2)cc1 3.63%
O=C(Nc1ccc(Cl)cc1C(F)(F)F)c1cc(S(=O)(=O)NCc2ccccc2)ccc1F 6.47%
CCN(CC)C(=O)C1CCN(C(=O)c2cnn(-c3ccccc3)c2-n2cccc2)CC1 -3.52%
CCOC(=O)CSc1nc2ccccc2n2c(C)nnc12 -2.84%
O=C(CSc1nccn1C1CCCC1)Nc1ccccc1 4.07%
COc1ccc(CNC(=O)CCS(=O)(=O)c2ccc3c(c2)CC(C)N3C(=O)C2CC2)cc1 (stereo not drawn) -11.4%
Cc1ccc(Cl)cc1N1CCN(C(=O)c2cn(C)c3ccc(S(=O)(=O)N4CCCC4)cc3c2=O)CC1 -5.34%
CCOc1ccc(-n2ccnc2SCC(=O)Nc2ccc(OC)cc2OC)cc1 -6.9%
CC1=C(C(=O)OC2CCCC2)C(c2cccc(Cl)c2Cl)CC(=O)N1 (stereo not drawn) -22.3%
COc1ccccc1N1CCN(C(=O)c2cc3c(=O)n(Cc4cccnc4)ccc3nc2C)CC1 -0.355%
O=C(Cn1c(=O)n(-c2ccccc2)c(=O)c2c3c(sc21)CCCC3)Nc1ccc(F)cc1 -2.14%
Cc1ccccc1OCC(=O)Nc1nnc(S(=O)(=O)N(C)c2ccccc2)s1 5.68%
CCC1Oc2ccccc2N(CC(=O)NCc2ccc(C)cc2)C1=O (stereo not drawn) 15.8%
CCN1CCN(c2ncc3c(n2)CCN(Cc2ccc(C)s2)C3)CC1 1.65%
COc1ccc(Br)cc1CNC(=O)c1cc2c(=O)n(C)c3ccccc3c2s1 -0.876%
Cc1cccc(CCNC(=O)c2nc(-c3ccc(Cl)cc3)n3c2CCCCC3)c1 -0.0798%
CC(=O)c1ccc(NC(=O)COc2ccccc2-c2nc(C)no2)cc1 -9.71%
CCn1c2c(c(=O)n3ncc(C(=O)Nc4ccc(F)c(Cl)c4)c13)CN(Cc1ccc(OC)cc1)CC2 6.61%
CCOc1ccc(C(=O)OCc2cc(=O)n3nc(C(C)C)sc3n2)cc1 -0.856%
CC(C)CC(=O)N(Cc1ccccc1)S(=O)(=O)c1ccc2c(c1)oc(=O)n2C 1.32%
Nc1nonc1-c1nc2ccccc2n1CC(=O)Nc1ccc(F)cc1 -25.3%
CC(=O)c1cc(-c2ccccc2)n(CC(=O)Nc2ccc(C)cc2C)c1C -0.281%
Cc1ccc(S(=O)(=O)c2cn(CC(=O)Nc3ccccc3)c3cc4c(cc3c2=O)OCO4)cc1 1.12%
Cc1ccc(-c2nc(CS(=O)CC(=O)O)c(C)o2)cc1 (stereo not drawn) 3.04%
CCOc1ccccc1NC(=O)NC(CC)c1c(-n2cccc2)sc2c1CCN(C)C2 (stereo not drawn) 9.05%
CCc1ccc(Nc2nc3ccccc3c3nnc(C)n23)cc1 0.177%
Cc1cccc(N2CCN(C(=O)c3ccc4c(c3)CCN4S(=O)(=O)c3ccccc3)CC2)c1C -12.5%
CCc1ccccc1NC(=O)CSc1nccn1C 6.01%
CCOC(=O)c1cc(OC(=O)c2cc(Cl)ccc2OC)n(-c2ccccc2)n1 1.98%
CCc1ccc(S(=O)(=O)c2nnn3c2nc(NCCC(C)C)c2cc(Cl)ccc23)cc1 -1.36%
CC(=O)c1ccc(OC(=O)c2c(-c3ccccc3Cl)noc2C)cc1 7.54%
COc1ccc2c(c1)c(CC(=O)Nc1cc(C)c(OC)c(C)c1)c(C)n2C(=O)c1ccc(Cl)cc1 -2.68%
CCCN(CCC)S(=O)(=O)c1ccc(C(=O)N2CCn3c4c(c5cc(C)ccc53)CCCC42)cc1 (stereo not drawn) 4.36%
O=C(COc1ccc(Cl)cc1Cl)Nc1ccc(C(=O)OC2CCCCC2)cc1 1.38%
Cn1nc(C(=O)Nc2cccc(C(F)(F)F)c2)c2c1-c1ccccc1S(=O)(=O)C2 -0.644%
CCOc1ccc(NS(=O)(=O)c2ccc3[nH]cc(C(=O)NCCc4ccccc4)c(=O)c3c2)cc1 -2.15%
COc1ccccc1Nc1ncnc2c1nc1n2CCCCC1 -9.88%
Cn1c(SCC(=O)Nc2ccccc2F)nc2c([nH]c3ccccc32)c1=O -11.9%
CCC(=O)N1c2ccccc2CC1C(=O)NCCN1CCN(c2ccccc2F)CC1 (stereo not drawn) 7.92%
Cc1ccc(NC(=O)CSc2nc(=O)n(CCN3CCOCC3)c3c2CCC3)cc1Cl 2.03%
Cc1ccc(Nc2c(-c3cccc(Cl)c3)nc3cccc(C)n23)cc1 1.47%
CC(C)(C)OC(=O)N1CCC(c2c(C(=O)NCc3ccccn3)cnn2-c2ccccc2Cl)CC1 3.74%
Cc1ccc(C)c(N2CCN(S(=O)(=O)c3ccc(C4CCCCC4)cc3)CC2)c1 14.6%
CCCc1noc(-c2ccc(NCc3ccccc3OC)c([N+](=O)[O-])c2)n1 1.2%
Cn1c(=O)nc2n(-c3ccc(Br)cc3)c3cccc(Cl)c3cc-2c1=O -7.2%
CCOc1ccccc1NC(=O)CSc1nc(-c2cccs2)cc(C(F)(F)F)n1 0.0661%
CC(C)c1ccc(NC(=O)CSC2=Nc3ccccc3C3=NC(CC(=O)NCCc4ccccc4)C(=O)N23)cc1 (stereo not drawn) -7.05%
Cc1[nH]c2ccccc2c1SCCNC(=O)c1ccc(F)cc1 10.1%
Cc1cc(-c2ccc(C)c(S(=O)(=O)NCCc3ccccc3)c2)on1 12.7%
O=C(Nc1cc(-c2nc3ccccc3o2)ccc1Cl)c1cc([N+](=O)[O-])ccc1N1CCOCC1 -3.63%
Cn1cc(-c2cc3n(n2)CCC(=O)N3CC(=O)NCc2ccccc2)c2ccccc21 -3.57%
Cc1cccc(Cn2c(SCc3ccc(C(=O)NCc4cccs4)cc3)nc3ccncc32)c1 2.85%
Cc1ccccc1C(=O)Nc1ccc2nc(SCC(=O)N(C)c3ccccc3)sc2c1 0%
CN(C)C1(CNC(=O)COc2cccc(Cl)c2)CCCCC1 -1.12%
O=c1cc(N2CCN(c3ccc(F)cc3)CC2)[nH]c(=O)n1-c1cccc(Br)c1 0.128%
Cc1cccc(C(=O)NCc2cn3cccc(C)c3n2)c1 -6.8%
CC(C)c1ccc(Cc2cnc(NC(=O)c3ccc4c(c3)CC(c3ccccc3)OC4=O)s2)cc1 (stereo not drawn) 2.25%
